Assay results published in paper PMC12136788.
The other results are listed elsewhere or left out.

T1: UNK ZnF1-3 (human, UniProt Q9C0B0 31-174)
T1 sequence: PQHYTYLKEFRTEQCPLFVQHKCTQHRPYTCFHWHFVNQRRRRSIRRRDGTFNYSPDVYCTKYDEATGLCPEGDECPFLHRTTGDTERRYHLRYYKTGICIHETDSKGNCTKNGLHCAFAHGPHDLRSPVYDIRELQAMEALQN

B1: 107180992_107181112_970_3pUTR_ENSMUSG00000047496_ENSMUST00000058688|mouse|control|control (ssRNA)
RNA: GGGAGUUCUACAGUCCGACGAUCGUUCUGCAGGGAUGGUCACCACGGUGAGAGACUUCUGCUGGCUCCCUGGCAGCAGGCGGCAGCCCAUGUCUCCCGGCAGGAGUGUACGCUCCUUAGAGAUGGGCAGGGGCAGCAUGUAGCCAACAGAGGAUUGAGCAUCA
B2: chr12:103220247:103220248:+_ENSMUSG00000041781_ENSMUST00000047357|mus_mus|motif|central (ssRNA)
RNA: GGGAGUUCUACAGUCCGACGAUCCAGGGAAUCAAUAAUGUCCACAGAGAAGUGUUCAUCCCAGCCACAGUCCAACAAAAACCGGAACUCAUCAACCUGGAGAAGAUAGCAAAGAGCGGACUCUUCUUGAACCCCAGAGAGGGUCAACAGAGGAUUGAGCAUCA
B3: chr2:198351390:198351391:-_ENSG00000144381_ENST00000345042|hu_hu|hu_hu_hu_mus_False|38_78 (ssRNA)
RNA: GGGAGUUCUACAGUCCGACGAUCUCAUUCCCACCCUCCACAGAAAGGCUGCUUCUGUUCUCAUCUGUGGUGACACAGCGCUACAGUCCUGAUGCUCACAGAAUAGUAGAGAUGCCUCAGUGAUUUAAGUUGAAAGCAGGACACCAACAGAGGAUUGAGCAUCA
B4: 82123261_82123381_3180_3pUTR_ENSMUSG00000022456_ENSMUST00000023095|mouse|control|control (ssRNA)
RNA: GGGAGUUCUACAGUCCGACGAUCCAGUCUCCAGGAAAGGCUAAGACCAUAGGAUUAGGACCACUUCUGCUUGGUCCACUGAAUUGUGGGUCUUCCAUCUCUUUUUGUUUUUUGUUUGUCUGUGUGUUUGUUUUCCUAGUGACUCAACAGAGGAUUGAGCAUCA
B5: chr8:104081237:104081238:+_ENSG00000155097_ENST00000518738|hu_mus|FALSE|FALSE (ssRNA)
RNA: GGGAGUUCUACAGUCCGACGAUCAACACACAGAAUUAUGCAUACCAUGAUAUCAAGGAGGAAAAUACCUCUUUAAAUAAACUAUUCUAUUUAUAAAUAAACUCUGAUUUUUUUCAGUACACAUUUACAGACCUGAUCAAUAAACAACAGAGGAUUGAGCAUCA
B6: chr1:220276048:220276049:+_ENSG00000067704_ENST00000302637|hu_hu|hu_hu_hu_mus_True|1_58 (ssRNA)
RNA: GGGAGUUCUACAGUCCGACGAUCGCAAAUUGCCUGGUUGGCGGGAAUUGUCCAAGGCUGGGUGGUCCAAACUAAAAUACUAACAGGGGAUGAGGCAUCUGUAAGAGACUCCAACUUCGGAGGAGGUCUCAGGAGGGGAAAUUUCAACAGAGGAUUGAGCAUCA
B7: chr4:140556289:140556290:+_ENSMUSG00000036622_ENSMUST00000037055|mus_mus|mus_mus_mus_hu_False|78_88 (ssRNA)
RNA: GGGAGUUCUACAGUCCGACGAUCGAUGGAGCUCACCAGGCCCCCUUUGGCUGUGCAGAACCCUGUCCGGGUCACCACUGCCAGGACGUGCGGUCCCACAUAGGCCCGGGCCUGCAAGAUGAGGGUCCCGCAGAAGAGUGUGUGCAACAGAGGAUUGAGCAUCA
B8: chr11:69803913:69803914:+_ENSMUSG00000018559_ENSMUST00000108593|mus_mus|FALSE|FALSE (ssRNA)
RNA: GGGAGUUCUACAGUCCGACGAUCCCCGAAACCCCAGUCCCCACCCACAGCCCAGCCCUUGGAGCAGGAGUGAAGAAUUAGAUCAGUUUUGUAUAAGAGUUUUUAAAAAAAUCAAAUCACAACAAAGUUGAAUUGGCUUCUUUUCAACAGAGGAUUGAGCAUCA
B9: chr7:150710151:150710152:-_ENSMUSG00000059119_ENSMUST00000072727|mus_hu|FALSE|FALSE (ssRNA)
RNA: GGGAGUUCUACAGUCCGACGAUCCACAGCCCGCGGGACUAUCCGCUCACGGAAAAAGUGUCCAAUUUCAAAAUCAGAGGCUAAUGUGAAUUCAGAAUCUUCAUCCAGUGAUUCUCCAUCCCCGGAUGCUUUCAAUGGAUUGAACAACAGAGGAUUGAGCAUCA
B10: chr12:133780691:133780692:+_ENSG00000090612_ENST00000541009|hu_hu|FALSE|FALSE (ssRNA)
RNA: GGGAGUUCUACAGUCCGACGAUCUCAUAUGGUUUUUCACCUGAAUGAGUUCUCAUGUGUAUAAUUAGGUAUGACUUGCUGCUAAAAGCUUUCCCACAUUCACUGCACCCAUAAGGCUUUUCCCCUGCAUGAGUUCGCUGAUGUCAACAGAGGAUUGAGCAUCA
B11: chr1:39494447:39494448:+_ENSG00000168653_ENST00000372967|hu_mus|hu_hu_hu_mus_False|18_88 (ssRNA)
RNA: GGGAGUUCUACAGUCCGACGAUCGCACCGAGCGGCGUUCUUAUAGGGCUGUUCACCGCUUAGGAACAUAAAGUGCCGGUCCAGGCUGAUGCCCAGCUUUUUCUGUAUGUCAAGGAAAGGCAUGGCCCUGCAGUGCCCUUGUCACAACAGAGGAUUGAGCAUCA
B12: chr1:225611761:225611762:-_ENSG00000143815_ENST00000272163|hu_mus|hu_hu_hu_mus_True|88_88 (ssRNA)
RNA: GGGAGUUCUACAGUCCGACGAUCCCAGGCCAUCGGCCUCUGACCACUUCACCAUCGACAAACUUCCUACUUGGCAUUUUCUAAAAUUAGUCUGGCCGCGCUCCGGCGGGAACUCCAGCCACUCCAGGACAGUCACCAGCAGCCCAACAGAGGAUUGAGCAUCA
B13: chr3:150289932:150289933:+_ENSG00000144895_ENST00000460851|hu_hu|hu_hu_hu_mus_False|98_98 (ssRNA)
RNA: GGGAGUUCUACAGUCCGACGAUCCUUGUAGUUUUUAACAUCCCACACUUCCAUUUGUCCUCGAAGAUUUCCAAAUCCAGCCAGCACUAAUAUAUGUCCAUGAGGGCUAUAGAAGGCUGCGUUGCGAGGACCAGUCCCAAAGUCCAACAGAGGAUUGAGCAUCA
B14: chr18:35732379:35732380:+_ENSMUSG00000037236_ENSMUST00000166793|perfect_dup|FALSE|FALSE (ssRNA)
RNA: GGGAGUUCUACAGUCCGACGAUCCAUUCUCUCAUACUCACUGUCAAAUUUAUGAUAGUUAUGCGAGGUCUCACCAAAAAAAGAAUCAUCCCUACACCUUUCUCCAUCUCUUAAUCUGUCAUCUUCAUAAUCCAUUCUGUCAUACAACAGAGGAUUGAGCAUCA

biological target: T1, UNK ZnF1-3; assay: nsRBNS (natural sequence RNA bind-n-seq); RBNS binding buffer (assumed for nsRBNS): 25 mM Tris pH 7.5, 150 mM KCl, 3 mM MgCl2, 0.01% Triton X-100, 500 ug/ml BSA, 20 U/ml SUPERase-In, 4 C; UNK is unkempt and MSI1 is Musashi-1; names of the RNAs are library labels; protein concentration not given here; high values mean tight binding

**Q.** Which binding signal does the source give for B1 here?
**A.** Its binding signal is 0.916 enrichment R.

**Q.** With B2 as the binder, how does the binding signal read?
**A.** Its binding signal is 1.44 enrichment R.

**Q.** Which binding signal does the source give for B3 here?
**A.** Its binding signal is 1.5 enrichment R.

**Q.** Which binding signal does the source give for B4 here?
**A.** Its binding signal is 0.459 enrichment R.

**Q.** Which binding signal does the source give for B5 here?
**A.** Its binding signal is 0.527 enrichment R.

**Q.** B6 was tested. Which binding signal did it give?
**A.** Its binding signal is 1.38 enrichment R.

**Q.** With B7 as the binder, how does the binding signal read?
**A.** The binding signal was 0.918 enrichment R.

**Q.** B8 was tested. Which binding signal did it give?
**A.** The binding signal was 1.75 enrichment R.

**Q.** B9 was tested. Which binding signal did it give?
**A.** The binding signal was 0.738 enrichment R.

**Q.** B10 was tested. Which binding signal did it give?
**A.** The binding signal was 0.582 enrichment R.

**Q.** B11 was tested. Which binding signal did it give?
**A.** The binding signal was 0.872 enrichment R.

**Q.** B12 was tested. Which binding signal did it give?
**A.** The binding signal was 1.26 enrichment R.

**Q.** For B13, which binding signal is on record?
**A.** Its binding signal is 1.16 enrichment R.

**Q.** How did the binding signal turn out when B14 was run?
**A.** Its binding signal is 1.49 enrichment R.
